{"source": "PubChem BioAssay AID1030", "about": "(National Center for Advancing Translational Sciences (NCATS), 2008)", "note": "In all, about 220,000 compounds went through this assay and about 16,000 (7.3%) were called active. This list was built around the results that the source calls inconclusive (neither active nor inactive); the mix of calls is not that of the screen. The call rests on the fitted dose curve; in most records, active means well fitted inhibition curve with a large enough effect (not every such curve was filed as active); inconclusive means small, poorly fitted or top-dose-only effect, or another doubt; inactive means no such curve, though single readings can be large or run the other way. No potency is given beside an inconclusive call; the fits are too rough. Potency means the concentration at half of the fitted maximal effect; tags describe the fitted curve by direction and shape.", "data": [{"target": "Aldehyde dehydrogenase 1A1 (Homo sapiens) (UniProt P00352)", "sequence (P00352 whole entry, looked up)": "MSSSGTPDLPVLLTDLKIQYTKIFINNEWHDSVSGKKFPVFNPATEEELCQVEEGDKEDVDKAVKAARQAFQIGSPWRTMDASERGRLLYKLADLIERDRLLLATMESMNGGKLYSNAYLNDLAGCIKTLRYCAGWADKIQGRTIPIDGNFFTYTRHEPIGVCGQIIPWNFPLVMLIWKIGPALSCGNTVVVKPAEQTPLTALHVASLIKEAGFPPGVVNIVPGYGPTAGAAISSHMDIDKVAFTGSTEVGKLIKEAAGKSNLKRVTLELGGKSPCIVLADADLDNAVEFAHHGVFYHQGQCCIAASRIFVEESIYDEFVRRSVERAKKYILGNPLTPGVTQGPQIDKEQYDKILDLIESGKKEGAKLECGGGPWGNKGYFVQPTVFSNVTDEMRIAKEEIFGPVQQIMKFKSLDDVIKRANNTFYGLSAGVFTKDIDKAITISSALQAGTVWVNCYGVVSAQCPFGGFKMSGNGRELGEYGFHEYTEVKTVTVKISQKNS", "assay": "qHTS Assay for Inhibitors of Aldehyde Dehydrogenase 1 (ALDH1A1);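 on activity, negative = inhibition: plate controls were no enzyme wells and a reference inhibitor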", "conditions": "Purified ALDH1A1, NADH fluorescence, propionaldehyde substrate; series mostly up to 75.3 µM; activity, negative = inhibition: at the top concentration", "values": [{"smiles": "CCC(=NCCN1CCNCC1)C1=C(O)CC(C)(C)CC1=O", "Potency": "inconclusive [inhibitor, single point]"}, {"smiles": "CCCCCCn1nc(C(=O)OCC(=O)NC2CCS(=O)(=O)C2)c2ccccc2c1=O", "note": "(configuration not stated)", "Potency": "inconclusive [inhibitor, single point]"}, {"smiles": "CCCCCC(=O)NC(=S)Nc1ccc(N2CCCCC2)c(Cl)c1", "activity, negative = inhibition": "inactive: 8.47%"}, {"smiles": "C=C(C)COc1ccc(-c2nc(N)ncc2Oc2ccccc2OCC)c(O)c1", "Potency": "inconclusive [inhibitor, partial curve]"}, {"smiles": "Cc1c(C(C)(C(=O)O)c2c(C)n(C)c3ccccc23)c2ccccc2n1C", "Potency": "inconclusive [inhibitor, single point]"}, {"smiles": "COc1ccc(C2N(c3ccc(Cl)cc3)C(=O)C3CCCN32)cc1", "note": "(configuration not stated)", "Potency": "inconclusive [inhibitor, single point]"}, {"smiles": "Cc1nc2cc(NCc3cccs3)ccc2n1C", "Potency": "inconclusive [inhibitor, single point]"}, {"smiles": "O=C(NC(=O)c1ccncc1)NC(c1ccccc1)c1ccccc1", "Potency": "inconclusive [inhibitor, partial curve]"}, {"smiles": "COc1ccc(C(=O)NCc2nnc(SCC(=O)N3CCC(C)CC3)o2)cc1", "Potency": "inconclusive [inhibitor, partial curve]"}, {"smiles": "S=C(Nc1ccc(Cl)cc1)c1nc2ccccc2[nH]1", "activity, negative = inhibition": "inactive: 2.96%"}, {"smiles": "O=[N+]([O-])c1ccc(N2CCCC2)nc1N1CCCC1", "Potency": "active: 1.41 µM"}, {"smiles": "Cn1c2ccccc2c2cc(C(=O)OCC(=O)N3CC(=O)Nc4ccccc43)sc21", "Potency": "inconclusive [inhibitor, partial curve]"}, {"smiles": "O=C(/C=C/c1ccc(Cl)cc1)NC(=S)NN1CCCCC1c1cccnc1", "note": "(configuration not stated)", "Potency": "inconclusive [inhibitor, single point]"}, {"smiles": "CCc1ccccc1NC(=O)Nc1cc(F)ccc1F", "activity, negative = inhibition": "inactive: -2.58%"}, {"smiles": "COc1ccc(C(=O)Nn2c(SCC(=O)NC3CCCC3)nc3ccccc3c2=O)cc1", "Potency": "inconclusive [inhibitor, single point]"}, {"smiles": "COCCn1c(SCC(=O)Nc2sccc2C(N)=O)nc2cc(Cl)ccc2c1=O", "Potency": "inconclusive [inhibitor, single point]"}, {"smiles": "O=[N+]([O-])c1ccc(N/N=C/c2c[nH]c3ccccc23)cc1", "activity, negative = inhibition": "inactive: -15.5%"}, {"smiles": "COc1ccc(C(=O)CSc2nncn2C)cc1", "Potency": "inconclusive [inhibitor, single point]"}, {"smiles": "Cc1c(C(=O)N2CCCC(C)C2)sc2ncnc(N3CCCCC3C)c12", "note": "(configuration not stated)", "Potency": "active: 12.6 µM"}, {"smiles": "CC(=O)c1c(N2CCOCC2)nc(=S)n(-c2ccc([N+](=O)[O-])cc2)c1C", "Potency": "inconclusive [inhibitor, single point]"}, {"smiles": "COc1cccc(NC=C2C(=O)OC(C)(C)OC2=O)c1", "Potency": "active: 10 µM"}, {"smiles": "Cc1cc(C)cc(Oc2nc(-c3ccccc3)cc(C)c2S(C)(=O)=O)c1", "Potency": "active: 14.1 µM"}, {"smiles": "O=C(CSc1nnc(CNC(=O)c2ccco2)o1)c1ccccc1", "activity, negative = inhibition": "inactive: 12.5%"}, {"smiles": "O=C(COC(=O)C1=COCCO1)NC1CCCCCCC1", "activity, negative = inhibition": "inactive: 2.66%"}, {"smiles": "COCCN(CCOC)S(=O)(=O)c1ccc(C(=O)Nc2sc3c(c2C(N)=O)CCCCC3)cc1", "Potency": "inconclusive [inhibitor, single point]"}, {"smiles": "COc1ccc2nc(SCC(=O)NCc3ccc4c(c3)OCO4)[nH]c2c1", "Potency": "inconclusive [inhibitor, partial curve]"}, {"smiles": "CC1CCCN(CCOc2ccc3ccccc3c2Br)C1", "note": "(configuration not stated)", "Potency": "inconclusive [inhibitor, single point]"}, {"smiles": "Cc1ccc(N=Cc2sc(O)c3ccccc23)cc1", "Potency": "inconclusive [inhibitor, single point]"}, {"smiles": "O=C(NCc1ccccc1Cl)c1csc2c1CCCCC2", "activity, negative = inhibition": "inactive: 5.35%"}, {"smiles": "COc1ccc(C(=O)/C=C/C(=O)N(CC(=O)NC2CCCCC2)Cc2ccccc2OC)c(O)c1", "Potency": "inconclusive [inhibitor, partial curve]"}, {"smiles": "O=[N+]([O-])c1cccc2c(Cl)ccnc12", "Potency": "inconclusive [inhibitor, single point]"}, {"smiles": "O=C(c1ccccc1)N1CCN(Cc2cccc(Oc3ccccc3)c2)CC1", "Potency": "inconclusive [inhibitor, single point]"}, {"smiles": "CCCCOC(=O)Nc1nnc(Cc2ccc(Cl)cc2)s1", "activity, negative = inhibition": "inactive: 11.3%"}, {"smiles": "O=S(=O)(Nc1nc2cc3c(cc2nc1Cl)OCCO3)c1ccccc1", "Potency": "inconclusive [inhibitor, partial curve]"}, {"smiles": "CSc1ccc(S(=O)(=O)NCc2ccc(C)cc2)cc1", "Potency": "inconclusive [inhibitor, partial curve]"}, {"smiles": "COc1ccccc1NC(=O)c1cnc2n(c1=O)CCS2", "Potency": "inconclusive [inhibitor, single point]"}, {"smiles": "CC(CCc1ccccc1)NC(=O)COC(=O)c1cc(NS(=O)(=O)c2ccc(Cl)c([N+](=O)[O-])c2)ccc1O", "note": "(configuration not stated)", "activity, negative = inhibition": "inactive: -2.77%"}, {"smiles": "S=C(Nc1ccc(Oc2ccc(NC(=S)NC3CCCCC3)cc2)cc1)NC1CCCCC1", "activity, negative = inhibition": "inactive: -1.31%"}, {"smiles": "COc1ccc(OCC(=O)Nc2ccccc2C(=O)NC(C)C)cc1", "Potency": "inconclusive [inhibitor, full curve, poor fit]"}, {"smiles": "Cn1c(-c2ccc(-c3ccccc3)cc2)c[nH]c1=S", "activity, negative = inhibition": "inactive: 2.09%"}, {"smiles": "C=C(C)C1(O)OC(=O)C=C1OC", "note": "(configuration not stated)", "Potency": "inactive"}, {"smiles": "Cn1c(=O)n(Cc2ccccc2)c(=O)c2c1nc1n2CCCN1CCc1ccccc1", "Potency": "inconclusive [inhibitor, single point]"}, {"smiles": "O=C(c1ccccc1)N1CCCC(C(=O)N2CCc3ccccc3C2)C1", "note": "(configuration not stated)", "Potency": "inconclusive [inhibitor, single point]"}, {"smiles": "Cn1c(NC(=O)CCc2ccccc2)cc(=O)n(C)c1=O", "Potency": "inconclusive [inhibitor, single point]"}, {"smiles": "COc1ccc(-c2ccc(S(=O)(=O)n3nc(OC(=O)c4cccs4)cc3N)cc2)cc1", "activity, negative = inhibition": "inactive: 1.05%"}, {"smiles": "CCCCCC(=O)c1c(C)[nH]c(C(=O)OCC)c1C", "Potency": "inconclusive [inhibitor, single point]"}, {"smiles": "CC(Nc1nc(-c2ccc3c(c2)NC(=O)CO3)cs1)c1ccccc1", "note": "(configuration not stated)", "Potency": "active: 6.31 µM"}]}]}
